# Measured values taken from the supplement of paper PMC4166925.
# ± gives the standard deviation of the averaged measurements. In all, about 33,000 sequences were measured (“E-score (dimensionless, -0.5 to 0.5)”: median about -0.046, highest 2% from about 0.36 on). This is one part of the list.
# Tested on: T1, SpTbr T-box DNA-binding domain (GST fusion)
# T1 sequence: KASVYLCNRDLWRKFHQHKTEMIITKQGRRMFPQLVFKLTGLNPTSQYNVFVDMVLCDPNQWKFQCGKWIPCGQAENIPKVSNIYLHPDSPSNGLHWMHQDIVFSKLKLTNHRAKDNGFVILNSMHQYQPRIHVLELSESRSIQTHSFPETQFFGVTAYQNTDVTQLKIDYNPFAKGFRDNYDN
# Assay: PBM E-score of 8-mer (E-score (dimensionless, -0.5 to 0.5)); Tbr is Tbrain of the sea star Patiria miniata (Pm) or the sea urchin Strongylocentrotus purpuratus (Sp); higher = stronger binding preference; most listed sequences are background and not binding sites
# Conditions: the construct has about 5 more residues each side
# Protocol: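 Universal protein-binding microarray (Agilent AMADID 016060, 60-bp probes with a 35-bp variable region) incubated with 200 nM GST-fused Strongylocentrotus purpuratus Tbr T-box DNA-binding domain (residues 362-554) in PBS pH 7.5. Scored for every ungapped 8-mer (given with its reverse complement) as E-score (range -0.5 to 0.5; >0.45 counts as bound) and Z-score of median probe intensity. Two replicate arrays (datasets 1 and 2).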
# 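Also: protein at 200 nM in PBS on universal double-stranded arrays.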
row,Sequence,PBM E-score of 8-mer
1,GGGTCCTA,-0.271 ± 0.0097
2,CATTGACC,-0.129 ± 0.0056
3,CGACAACA,0.273 ± 0.021
4,ATTTTCCA,-0.00624 ± 0.023
5,GGTCGCAC,0.365 ± 0.046
6,GAGCTACC,-0.0692 ± 0.038
7,GCTGTGCC,0.134 ± 0.06
8,CCAATAAG,-0.199 ± 0.0037
9,TGCCCGAA,-0.147 ± 0.15
10,GAGAAGCC,-0.119 ± 0.042
11,ACGCCTTA,0.343 ± 0.028
12,GTATCCGA,-0.234 ± 0.03
13,CCACGGAA,-0.0496 ± 0.042
14,GAAGTCGC,0.169 ± 0.024
15,CGTCAGTA,0.0635 ± 0.0067
16,AAAACGAG,-0.219 ± 0.0091
17,GAGGGAGC,-0.0326 ± 0.0046
18,CCGGCGAG,-0.0522 ± 0.041
19,AGGTTTAA,-0.0723 ± 0.017
20,TGATATAA,0.0954 ± 0.029
21,ATCCCCTG,-0.187 ± 0.032
22,ACTGCTTG,-0.041 ± 0.067
23,ACTACAGA,0.00247 ± 0.033
24,ATCGCGCA,0.151 ± 0.015
25,GAACACAA,0.0535 ± 0.085

row,Sequence,PBM E-score of 8-mer
1,GTCATCAC,0.329 ± 0.052
2,GCCTCTCC,-0.176 ± 0.05
3,AATATTAG,-0.0409 ± 0.043
4,ATGCTGAA,-0.205 ± 0.04
5,AAGCCATC,-0.208 ± 0.04
6,ATTAGTTA,-0.116 ± 0.11
7,CAGCCGAC,0.102 ± 0.058
8,TCCTTAGA,-0.329 ± 0.023
9,CACGTCCA,0.0811 ± 0.029
10,AGACCTGA,-0.094 ± 0.0078
11,ATTCAGTG,-0.0251 ± 0.042
12,AGACTATC,-0.0317 ± 0.0024
13,TAGGGAGA,-0.082 ± 0.027
14,AGGCGTGC,0.236 ± 0.052
15,ACAGTAGG,-0.00161 ± 0.0019
16,AGCGCACG,0.137 ± 0.04
17,AACACTGA,0.0941 ± 0.085
18,GCAGAGCC,-0.0366 ± 0.084
19,CTATTGCC,-0.113 ± 0.026
20,AACTCATC,-0.0679 ± 0.032
21,GGGCTAAC,0.118 ± 0.018
22,CGGCGTGC,0.00958 ± 0.15
23,AACGGAAG,-0.204 ± 0.043
24,CCGTTCAA,-0.221 ± 0.035
25,GTAATCCA,0.03 ± 0.059

row,Sequence,PBM E-score of 8-mer
1,AGAATCAA,-0.137 ± 0.042
2,CCGAAACC,-0.241 ± 0.037
3,ACTCCATG,-0.0431 ± 0.038
4,CACGCTAG,0.0339 ± 0.053
5,GTGCTACA,0.161 ± 0.055
6,GGATCCCC,-0.0275 ± 0.062
7,CATCTGCA,-0.207 ± 0.04
8,CTTGGCCC,-0.1953 ± 0.0016
9,GTTGCCCA,-0.0881 ± 0.12
10,AGCTTGTG,0.178 ± 0.06
11,TTCGAAAA,-0.282 ± 0.041
12,TAGCAGAA,-0.146 ± 0.018
13,ATTTAGCA,0.138 ± 0.094
14,AGGATGAG,-0.0633 ± 0.042
15,ACGTGGAA,-0.0808 ± 0.05
16,AGGGAGAC,-0.204 ± 0.046
17,CCTCTGGC,-0.0581 ± 0.017
18,ATACTCCC,-0.227 ± 0.01
19,AAGTAGTA,-0.0516 ± 0.042
20,CGCGAATC,0.342 ± 0.018
21,ACCAAGAA,-0.134 ± 0.025
22,ATGGGGCC,-0.0701 ± 0.0067
23,AACAGAGA,0.00356 ± 0.031
24,CTATGTTC,-0.0945 ± 0.086
25,AATAGTAT,-0.0104 ± 0.068

row,Sequence,PBM E-score of 8-mer
1,CAATGAAG,0.0998 ± 0.005
2,CCATCAAC,0.0151 ± 0.022
3,GCCAGCGA,0.164 ± 0.098
4,AGACCACT,-0.194 ± 0.038
5,AATAAGTC,-0.0923 ± 0.051
6,AACGGTTA,0.03 ± 0.081
7,AACTTATT,-0.206 ± 0.059
8,ACACTAGC,0.193 ± 0.0066
9,AACTGTAG,0.00842 ± 0.0095
10,AAGTATCC,-0.152 ± 0.008
11,CGGACACG,0.228 ± 0.0096
12,AAATACAA,-0.265 ± 0.013
13,CGGGGGTC,-0.137 ± 0.0072
14,CACTTCGC,0.352 ± 0.018
15,GCCTGTAC,-0.167 ± 0.0039
16,CCGGCTCG,-0.242 ± 0.054
17,CGACGAGA,0.0744 ± 0.0061
18,GGGAACCC,-0.0851 ± 0.0094
19,CATGAAAA,-0.243 ± 0.038
20,TACATCAA,-0.207 ± 0.033
21,AGATTTGG,-0.00302 ± 0.019
22,CCGACTCG,-0.112 ± 0.0083
23,CACAACCA,0.133 ± 0.025
24,GAGTGGGC,-0.0471 ± 0.04
25,AATTCTGC,-0.0452 ± 0.0092

row,Sequence,PBM E-score of 8-mer
1,AAGCGGCG,0.062 ± 0.05
2,CGTCATGA,-0.151 ± 0.033
3,ATACCGAG,-0.197 ± 0.0024
4,CTCATTTC,-0.299 ± 0.014
5,CGTGAACA,0.3774 ± 0.003
6,AATTAGGC,-0.033 ± 0.032
7,ATATGTGC,0.1856 ± 0.001
8,ATTTGCCC,-0.177 ± 0.017
9,ACTGGTAC,-0.0857 ± 0.01
10,ACGAGGTC,-0.114 ± 0.018
11,ACCCGAAA,0.152 ± 0.015
12,GGGTATTA,-0.038 ± 0.048
13,CATAGAGG,-0.0393 ± 0.019
14,GCGGGTAA,0.146 ± 0.0046
15,AGCATTAT,0.00754 ± 0.061
16,GGCCGTAC,-0.249 ± 0.0084
17,CAGTCATC,-0.0362 ± 0.012
18,CCACCTGC,0.269 ± 0.0095
19,CCTTTCTC,0.0185 ± 0.0011
20,CGTACCGA,-0.156 ± 0.052
21,ACAAACAA,-0.066 ± 0.0099
22,CTGCATCC,-0.245 ± 0.0093
23,ATATATTC,-0.271 ± 0.025
24,CCTAATTA,-0.0287 ± 0.015
25,CCCCCATC,-0.0563 ± 0.053

row,Sequence,PBM E-score of 8-mer
1,GTCCTTAA,-0.269 ± 0.0087
2,AATCCGGC,-0.0346 ± 0.0085
3,TAGGTCAA,-0.2271 ± 0.0022
4,CGTAATAG,-0.105 ± 0.022
5,ATAGTCTA,-0.144 ± 0.052
6,TCCGTCCA,-0.0554 ± 0.01
7,GATCGAAC,-0.035 ± 0.014
8,CAAGTTTA,0.0965 ± 0.048
9,GCGGTTAC,-0.06 ± 0.068
10,CCCAGTGC,-0.0903 ± 0.0083
11,GTTTTGCA,-0.0412 ± 0.044
12,GAGCTTCA,-0.236 ± 0.036
13,AGTTTCTG,-0.0851 ± 0.074
14,AGCTCTCA,0.115 ± 0.032
15,CGAACGAA,-0.111 ± 0.06
16,GTTTAGTA,-0.333 ± 0.012
17,AAGCTCTG,-0.183 ± 0.027
18,CTAAGCAA,0.038 ± 0.0066
19,ACGAATTG,0.0276 ± 0.0015
20,GCTGAGGA,0.0171 ± 0.038
21,ACGGTTAG,-0.0126 ± 0.093
22,TAACAGCA,0.0439 ± 0.019
23,AGGAATGC,-0.142 ± 0.024
24,AATCCGAG,-0.0447 ± 0.06
25,AACAGCAC,0.202 ± 0.046

row,Sequence,PBM E-score of 8-mer
1,GGCCTTGA,-0.26 ± 0.019
2,TCTTTCAA,-0.252 ± 0.024
3,CTTTGACC,-0.13 ± 0.05
4,ACGTACCA,-0.143 ± 0.039
5,AATCTCTC,-0.1 ± 0.11
6,GCATCGGA,-0.138 ± 0.017
7,CGGATTCA,-0.0393 ± 0.016
8,GTAGTGGA,-0.102 ± 0.053
9,ACCACTCG,0.101 ± 0.024
10,CCCTCCTC,-0.0298 ± 0.012
11,AGTCTTTG,-0.0972 ± 0.0089
12,ATAGCAGC,0.0931 ± 0.011
13,AAATAAGT,-0.0288 ± 0.062
14,ACCCTAGC,-0.0995 ± 0.029
15,ATACATAC,-0.103 ± 0.013
16,AACTACAT,-0.0413 ± 0.043
17,ACTTCTAT,-0.0218 ± 0.0071
18,CCTCCAGG,-0.242 ± 0.0033
19,ATGCACGA,-0.0775 ± 0.11
20,CACAAACC,-0.19 ± 0.028
21,CTCAGGAC,-0.222 ± 0.031
22,ACATTCCT,-0.222 ± 0.0064
23,CATCTCTA,-0.0506 ± 0.074
24,AAGAACCG,-0.0168 ± 0.063
25,GACCGCAA,-0.142 ± 0.035

row,Sequence,PBM E-score of 8-mer
1,GCGGTTCA,0.1741 ± 0.0011
2,GCAACCTA,0.158 ± 0.058
3,CCCCCAAG,0.0998 ± 0.036
4,AGCCGAAC,-0.0757 ± 0.063
5,CCAGCACG,0.205 ± 0.032
6,GCCAAAAA,-0.0953 ± 0.034
7,ATAAACAC,0.293 ± 0.034
8,CGCCGATC,-0.0602 ± 0.07
9,TGGGACAA,-0.109 ± 0.004
10,ACGAACAG,0.0154 ± 0.16
11,ACGATCTG,0.144 ± 0.042
12,AGCAGGGC,-0.297 ± 0.019
13,GCACCGCC,0.0994 ± 0.15
14,GCATGAAA,-0.0438 ± 0.023
15,CGCCCTGA,-0.0239 ± 0.0077
16,CTGGTATC,-0.2 ± 0.12
17,AAGACATT,-0.167 ± 0.06
18,GATCGGTA,-0.135 ± 0.031
19,ACATGGAG,-0.122 ± 0.03
20,GAGCTCCA,-0.209 ± 0.034
21,ATAATTAA,-0.0627 ± 0.08
22,AGCATCAC,0.197 ± 0.0061
23,ACAAGTGT,0.381 ± 0.019
24,ACTACCTG,0.0617 ± 0.013
25,GAGTGGCA,0.199 ± 0.044

row,Sequence,PBM E-score of 8-mer
1,AGTCTCAA,0.00675 ± 0.073
2,GTACACAC,0.237 ± 0.018
3,CAGCCACG,0.196 ± 0.035
4,ACAAGGCA,-0.091 ± 0.044
5,GTGGCGGA,0.163 ± 0.049
6,CCTTGGAA,-0.137 ± 0.011
7,AGGATACA,-0.0566 ± 0.059
8,AAACTCTT,-0.161 ± 0.018
9,GACAAGGA,-0.0645 ± 0.017
10,CTAGTGCC,0.0231 ± 0.067
11,AGAAATCC,-0.13 ± 0.034
12,AGGGATTA,-0.0888 ± 0.03
13,AATCCGTC,-0.0788 ± 0.035
14,CGAAGAAG,0.0515 ± 0.035
15,ACCCAAGC,-0.238 ± 0.036
16,GAACGGGA,-0.101 ± 0.059
17,CCTGAGCA,-0.0674 ± 0.018
18,ACTACCAC,-0.0193 ± 0.054
19,ATTGAGAA,0.00754 ± 0.1
